PubChem BioAssay AID485364 (National Center for Advancing Translational Sciences (NCATS), 2010)
About 11,000 (3.1%) of roughly 360,000 compounds were called active. The shares of active, inactive and inconclusive entries below differ from those in the screen. Calls come from the whole dose curve; as a rule, active = well fitted inhibition curve with a large enough effect; inconclusive = small, poorly fitted or top-dose-only effect; inactive = no such curve, though single readings can be large or run the other way. No potency is given beside an inconclusive call; the fits are too rough.

These molecules were tested against Schistosoma mansoni thioredoxin glutathione reductase (TGR) (UniProt Q962Y6) (assay: qHTS Assay for the Inhibitors of Schistosoma Mansoni Peroxiredoxins). Details: purified TGR, DTNB reduction, TNB absorbance 405 nm; activity change, negative = inhibition: at 114 µM (top of the series) unless noted.
Summary of the method: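 TGR 20 nM + NADPH 100 uM (dispensed conc.), cpd preinc 15 min RT; start with NADPH (500 uM addition) then DTNB (15 mM addition). Kinetic TNB absorbance, 405 nm filter. Four-parameter Hill fit across titration.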
% is set by controls: 0 for no effect and ±100 for the full control effect; potency is the fitted concentration of half-maximal effect; tags give direction and shape of the fitted curve.
Note: nearly all actives have a fitted effect of over 60% in size.

SMILES	Potency	activity change, negative = inhibition
Fc1ccc(C(Nc2ccccn2)c2c[nH]c3ccccc23)cc1 (stereo not given)	active: 2.82 µM	–
O=C(Nc1cccc2ccccc12)c1ccc([N+](=O)[O-])cc1	–	inactive: 5.7%
CCOC(=O)c1sc(=S)n(-c2ccc(C)cc2)c1SC	–	inactive: 1.21%
CC(=O)Nc1ccc(OC(=O)c2ccc(Br)c([N+](=O)[O-])c2)cc1	inconclusive [inhibitor, full curve, poor fit]	–
CCCC[C@]12Cc3c(ccc4ccccc34)C(O1)C1=C(O2)C(=O)c2ccccc2C1=O	inconclusive [inhibitor, partial curve]	–
Cc1ccc(-c2ccc(CCC(=O)O)n2NC(=O)c2ccco2)cc1	inconclusive [inhibitor, partial curve]	–
O=C1N(Cc2cccc(Cl)c2)C[C@@H]2C[C@@H](c3c[nH]c4ccccc34)N3CCC[C@@]123	inconclusive [inhibitor, full curve, poor fit]	–
C=CCN(C(=O)CCC(=O)Nc1cc(C)on1)C(C(=O)NC(C)(C)C)c1cccc(OC)c1OC (stereo not given)	inconclusive [inhibitor, single point]	–
CCN(CC)CCN1C(=O)C(O)=C(C(=O)c2cccs2)C1c1ccccn1 (stereo not given)	inconclusive [inhibitor, partial curve]	–
CCCn1c2ccccc2c2cnn(CC(=O)N(C)c3ccc(F)cc3)c(=O)c21	–	inactive: 0.247%
COc1ccc(Cl)cc1NC(=O)c1c(NCc2ccc(C)o2)sc2c1CCCCC2	active: 3.55 µM	–
CCC1CCCCN1C(=O)Cn1c(=O)n(CCCCCC(=O)NCc2ccccc2)c(=O)c2sccc21 (stereo not given)	–	inactive: -7.45%
Cc1c(C(=O)N2CCOCC2)cc(C(C)(C)C)n1-c1ccccc1	inconclusive [inhibitor, partial curve]	–
O=C(NCC(=O)N(c1ccc(F)cc1)C(C(=O)NCC1CCCO1)c1ccccc1)c1ccco1 (stereo not given)	inconclusive [inhibitor, single point]	–
COc1cc2c(C(=O)Nc3ccccc3F)cn(C)c(=O)c2cc1OC	inconclusive [inhibitor, partial curve]	–
O=C(c1ccc2ncsc2c1)N1CCN(c2ccccc2Cl)CC1	–	inactive: -12%
CCOC(=O)C1CCCN(C(=O)CCn2nnnc2CN2CCOCC2)C1 (stereo not given)	inconclusive [inhibitor, partial curve]	–
CCOc1ccc(C(CC(=O)O)n2cnnn2)cc1 (stereo not given)	–	inactive: -3.54%
COC(=O)C1(C)NC(c2ccc(Cl)cc2)C2C(=O)N(c3ccccc3)C(=O)C21 (stereo not given)	inconclusive [inhibitor, single point]	–
CC1(C(=O)N/N=C/c2ccc([N+](=O)[O-])o2)CC1(Br)Br (stereo not given)	inconclusive [inhibitor, partial curve]	–
COc1ccc(-c2cc(C(F)(F)F)nc(S(=O)(=O)CCCC(=O)Nc3cccc(O)c3)n2)cc1OC	active: 35.5 µM	–
CCc1ccc(NCc2cc3cc4c(cc3n(CC(=O)Nc3ccc(C)cc3)c2=O)OCO4)cc1	inconclusive [inhibitor, full curve, poor fit]	–
COc1ccc(S(=O)(=O)n2oc(=O)cc2-c2ccccc2)cc1	–	inactive: -24.7%
Cn1ncc(N=Cc2ccc([N+](=O)[O-])cc2)c1C(=O)N1CCOCC1	–	inactive: -4.99%

SMILES	Potency	activity change, negative = inhibition
c1ccc2cc(CCCc3cc4ccccc4cn3)ncc2c1	inconclusive [inhibitor, single point]	–
CCOC(=O)COc1cc(-n2c(=S)[nH]c3ccccc3c2=O)c(Cl)cc1Cl	–	inactive: 0.411%
COC(=O)[C@@H]1C[C@@H]2CC[C@@H](O)C[C@@H]2N1Cc1ccc(Cl)cc1	inconclusive [inhibitor, partial curve]	–
O=C(CN1CCOCC1)Nc1ccc2c(c1)OCCO2	–	inactive: -1.62%
CC(=O)/C(N=Nc1cc(C)ccc1O)=C(\C)O	inconclusive [inhibitor, partial curve]	–
COc1ccc(-c2nc(CSCC(=O)NCc3ccc4c(c3)OCO4)c(C)o2)cc1OC	inconclusive [inhibitor, partial curve]	–
CC(NC(=O)c1cccnc1)C(=O)O (stereo not given)	–	inactive: 9.94%
COc1ccc(-c2nc(CS(=O)CC(=O)NCc3ccco3)c(C)o2)cc1 (stereo not given)	–	inactive: 0%
NC(=O)c1nsc(C(=O)N(c2cccc(F)c2)C(C(=O)NCc2ccccc2)c2ccc(O)cc2)c1N (stereo not given)	inconclusive [inhibitor, partial curve]	–
C#CCOc1c(Br)cc(/C=C2/C(=O)ON=C2C)cc1OC	inconclusive [inhibitor, partial curve]	–
CN(Cc1ccccc1)Cc1c(O)ccc2ccccc12	active: 0.891 µM	–
CC(C)CC(=O)Nc1ccc(-c2cn3ccsc3n2)cc1	–	inactive: -21.3%
Cc1ccc(-c2nc3c4ccccc4n(Cc4cccc(Cl)c4)c(=O)n3n2)cc1	–	inactive: 1.4%
Cc1ccc([C@@H]2[C@@H]3C(=O)N(C)C(=O)[C@@H]3[C@]3(C)C(=O)N(Cc4ccc(-c5ccccc5)cc4)CC(=O)N23)o1	inconclusive [inhibitor, partial curve]	–
CC(Oc1ccc(Cl)cc1Cl)C(=O)N(Cc1ccco1)C1CCS(=O)(=O)C1 (stereo not given)	inconclusive [inhibitor, partial curve]	–
Cc1cc(C)cc(N2CCn3c2nc2c3c(=O)n(CCc3ccccc3)c(=O)n2C)c1	inconclusive [inhibitor, single point]	–
CC(=O)c1c(O)cc(O)cc1CC(=O)O	inconclusive [inhibitor, partial curve]	–
Cc1ccc(NCC(=O)N/N=C\c2ccc([N+](=O)[O-])o2)cc1	inconclusive [inhibitor, partial curve]	–
Cc1occc1-c1nnc(-c2cc([N+](=O)[O-])cc([N+](=O)[O-])c2)o1	–	inactive: -6.11%
CC1CC(N(C(=O)c2ccccc2Cl)c2ccccc2)c2ccccc2N1 (stereo not given)	–	inactive: -20.2%
CCOCCCNC(=O)c1ccc(CS(=O)(=O)Cc2ccc(C)cc2)o1	inconclusive [inhibitor, single point]	–
CCN1CCc2c(C#N)c(N3CCOCC3)nc(NCc3ccccc3)c2C1	inconclusive [inhibitor, partial curve]	–
CC(=O)Nc1ccc(NS(=O)(=O)c2ccc(C)cc2)cc1[N+](=O)[O-]	inconclusive [inhibitor, single point]	–
CC(=O)OCC1=C[C@@H]2OC(=O)C3=CO[C@@H](O[C@@H]4O[C@H](CO)[C@@H](O)[C@H](O)[C@H]4O)[C@H]1[C@@H]32	–	inactive: 2.68%

SMILES	Potency	activity change, negative = inhibition
Cc1ccc(C(=O)N/N=C\c2ccc(-c3ccc([N+](=O)[O-])cc3)o2)cn1	–	inactive: -0.437%
O=C(CCS(=O)(=O)c1ccccc1)N1CCN(c2cccc(C(F)(F)F)c2)CC1	inconclusive [inhibitor, partial curve]	–
Cn1c(=O)n(CCc2ccccc2)c(=O)c2c1nc1n2CCN1c1ccc(Cl)cc1	–	inactive: 0.821%
Cc1cc(C(=O)OCC(=O)c2ccc(Br)s2)c(C)o1	inconclusive [inhibitor, partial curve]	–
COc1ccc(S(=O)(=O)Cc2ccc(C(=O)NC3CCCCC3)o2)cc1	inconclusive [inhibitor, single point]	–
Cc1ccc(CN2CCNC(=O)C2CC(=O)NCCCn2ncc3ccccc32)o1 (stereo not given)	active: 25.1 µM	–
CC(/C=N/NC(=O)c1cc(-c2cccn2C)n[nH]1)=C\c1ccccc1	inconclusive [inhibitor, partial curve]	–
COc1ccc(NC(=S)NC(=O)c2ccccc2Cl)cc1	inconclusive [inhibitor, partial curve, poor fit]	–
C#CCNC(=O)C1=C[C@H](C2CCCCC2)C[C@H](OCc2ccc(CO)cc2)O1	active: 20 µM	–
CCN1CCN(C(c2ccccc2)c2c(O)cc(C)n(CCOC)c2=O)CC1 (stereo not given)	active: 3.98 µM	–
COc1ccc(OC)c(/C=N/NC(=O)CCc2ccc(O)c(O)c2)c1	active: 20 µM	–
COc1ccc(-c2csc(N(Cc3ccco3)C(=O)c3cccs3)n2)cc1	active: 12.6 µM	–
O=C(NC1CCS(=O)(=O)C1)/C(=C\c1ccco1)NC(=O)c1ccccc1 (stereo not given)	active: 35.5 µM	–
Cc1cccc(C(=O)c2c(N)sc3c2CCCC3)c1	inconclusive [inhibitor, partial curve]	–
Cc1ccc(NC(=O)Cc2ccc(NC(=O)N3CCCCc4ccccc43)cc2)cc1	inconclusive [inhibitor, single point]	–
CC(=O)N1N=C(c2ccc(C)cc2)CC1c1ccc2c(c1)OCO2 (stereo not given)	–	inactive: 1.66%
C[n+]1cc(-c2ccccc2)oc1-c1ccccc1	inconclusive [inhibitor, single point]	–
COc1cccc(CC2(CO)CCCN(Cc3sc(N4CCCC4)nc3Cl)C2)c1 (stereo not given)	inconclusive [inhibitor, partial curve]	–
COc1ccccc1NC(=O)CCn1c(=O)oc2cc(Cl)ccc21	inconclusive [inhibitor, single point]	–
CCc1cc2c(N3CCN(C(=O)c4ccco4)CC3)ncnc2s1	inconclusive [inhibitor, partial curve]	–
CCOc1cc(/C=C2/C(=O)ON=C2C)ccc1OCc1ccccc1	active: 50.1 µM	–
COC(=O)c1ccc(N2C(=O)CC(SCC(=O)Nc3ccc(OC)cc3)C2=O)cc1 (stereo not given)	inconclusive [inhibitor, partial curve]	–
